Measured values published in PMC12136788.
The other results are listed elsewhere or left out.

T1: UNK ZnF1-3 (human, UniProt Q9C0B0 31-174)
T1 sequence: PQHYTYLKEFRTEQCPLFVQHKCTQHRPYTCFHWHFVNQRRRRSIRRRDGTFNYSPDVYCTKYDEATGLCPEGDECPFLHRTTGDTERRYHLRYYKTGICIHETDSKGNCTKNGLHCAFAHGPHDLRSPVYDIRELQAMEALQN

B1: 105898431_105898551_306_CDS_ENSMUSG00000049354_ENSMUST00000058438|mouse|control|control (ssRNA)
RNA: GGGAGUUCUACAGUCCGACGAUCGCUGCCCAGCGCCAGGCGAAAGCGCUUGUCCGGCCGCACGCUCCAGUUCAUGGCGUACACAGUCCAGGGCGCUUCAUAUUUGUAGAUCUCCUUCCGUUUGCCGUGCAGGGACAUGGUGGCCAACAGAGGAUUGAGCAUCA
B2: chr13:76077047:76077048:-_ENSMUSG00000021589_ENSMUST00000022078|mus_hu|FALSE|FALSE (ssRNA)
RNA: GGGAGUUCUACAGUCCGACGAUCGAAUGAAAACUUGUCAUUAACGUUGUAUUUGAUCACAAUGAUGUCAGCGCCCCCAAUUAGAUUUCGAGAAGUGUACCAAUCACUGUCAAAUAUGUCCCAGACGGGACAGUCGUGGACCACCAACAGAGGAUUGAGCAUCA
B3: 11577162_11577282_1827_3pUTR_ENSG00000205269_ENST00000379426|human|control|control (ssRNA)
RNA: GGGAGUUCUACAGUCCGACGAUCUUGGAUUAUCCUUAACUUCAUAUUCUCUGCAAUGUCUCCUUUGAGUUAGCACAUUAUAAUUGUAUCUGGUGCCAAAAAAAAUCUCAUUAGGAGACCAGUUCAACCCUACUUCCUAUACUCCAACAGAGGAUUGAGCAUCA
B4: chr12:114310842:114310843:+_ENSMUSG00000021143_ENSMUST00000084891|mus_mus|FALSE|FALSE (ssRNA)
RNA: GGGAGUUCUACAGUCCGACGAUCUGUAAGGGAGGUGGCCUUUGUAGUCAGACCAGCAUGCUGGAGCCUUCACGGGCUACAAACAAAUCUCUCUCUCUCUCUCUCUCACACACACACACACACACACACACACACACACACACACAACAGAGGAUUGAGCAUCA
B5: 53177821_53178182_337_CDS_ENSG00000100519_ENST00000606149|human|control|control (ssRNA)
RNA: GGGAGUUCUACAGUCCGACGAUCAGGGUCCUCAUGAGACAUGUUAUAAACCAGUGGAUCCACCUCUCUCGGCAAAUAUCUCAUGAUAGUUAGUGUAGUCAUAUCCAAAGCAACUCUUGUUCCUGGCUUCAGCUUACUUUUGUCCAACAGAGGAUUGAGCAUCA
B6: chrX:131284163:131284164:-_ENSMUSG00000050394_ENSMUST00000052431|mus_mus|motif|central (ssRNA)
RNA: GGGAGUUCUACAGUCCGACGAUCGGGACUCCUGUUUCCAACCACUGAUAGGCUGGCCAGAUGUUUACUGAUAUUGGGGCGGAGGGAAAAGCCAGCAUUUAUGUUCUUCGUGAACCUUUUCUUUCUUUGAGUGGAAACACACUUCAACAGAGGAUUGAGCAUCA
B7: chr4:82150701:82150702:-_ENSMUSG00000008575_ENSMUST00000064770|mus_mus|motif|central (ssRNA)
RNA: GGGAGUUCUACAGUCCGACGAUCUAAAACGCACUUUCCCGGAGAUGCCCAAGAAAAUCUUCCAGAAGCAAGGAUUUCAUCGGUUCAUUUUACAGUCAUCUGAGCCCAGCGAUGCGAUCAAUCAGGACGGGGCACUGCGCCGGUCAACAGAGGAUUGAGCAUCA
B8: chr18:31598358:31598359:-_ENSMUSG00000024261_ENSMUST00000025110|mus_mus|motif|central (ssRNA)
RNA: GGGAGUUCUACAGUCCGACGAUCAAAUACAUUUUCAUCGAAUUUACAAACACUGUGAUAUCAAACACAUUCUCAAAAAUGCGGAAGCACUGACACAAAACUUGACUCAAAGGUAAAAUUUCCAGUAGACAUUAUCUCUAACUUCAACAGAGGAUUGAGCAUCA
B9: chr17:64801638:64801639:+_ENSG00000154229_ENST00000413366|hu_mus|hu_hu_hu_mus_False|28_28 (ssRNA)
RNA: GGGAGUUCUACAGUCCGACGAUCUAUAUAUAUAUAUACAUAUGUACACAUAUAUAGUAAAACCCUAGUUAAACGUGUAAAGUAGCCAUUCAUUUUUAAAAUUACAUCUACAUUUAAAAAUUAAUAUAUCUGAUAGAGUGCCAGCAACAGAGGAUUGAGCAUCA
B10: 93174519_93174639_65_5pUTR_ENSMUSG00000027217_ENSMUST00000111265|mouse|control|control (ssRNA)
RNA: GGGAGUUCUACAGUCCGACGAUCGGGCUAGGCGUCAAAGCGACAAGGAGCGGCGACGCCCGCUGGGGGCCAGGGCCGGGCGGCCUGGCGUGGCUGGGCUUCGGAAUCGCACAGCGUUGCGUCCGCCUGCAGCUUGCAGCCCCUCAACAGAGGAUUGAGCAUCA
B11: chr3:100432656:100432657:+_ENSG00000114354_ENST00000490574|hu_hu|motif|central (ssRNA)
RNA: GGGAGUUCUACAGUCCGACGAUCUGUUACUUCAUCAUUACUCAGAAGUUUUCCUCUGAAAACUCGUUGCAUCAUUAGCACGGAUUCAUCAUAAGUAAUAUCUUCAUUAUGAAUAGGAAUUCGCCGAAUAUCCUCCCCAAGUUGCAACAGAGGAUUGAGCAUCA
B12: chr1:220276048:220276049:+_ENSG00000067704_ENST00000302637|hu_hu|hu_hu_hu_mus_True|8_38 (ssRNA)
RNA: GGGAGUUCUACAGUCCGACGAUCGCAAAUUGCCUGGUUGGCGGGAAUUGUCCAAGGCUGGGUGGUCCAAACUAAAACGCUAACAGGGGAUGAGGCAUCUAUAAGAGACUCCAACUUCGGAGGAGGUUUUAAGAGAGGGAAUCUCAACAGAGGAUUGAGCAUCA
B13: 57917422_57918035_542_CDS_ENSMUSG00000003226_ENSMUST00000003310|mouse|control|control (ssRNA)
RNA: GGGAGUUCUACAGUCCGACGAUCAAGUUCUGACUGAAUCAAGUCAAAAAGUUUAUUCCAUCCAUCUUCACCUUUACAAUCUAAAAGUUGUUCCUUUAACUUAUAAAUGGCAGGACUUCCUGGGAAAAGUUUGGCUGCUCUUUCCAACAGAGGAUUGAGCAUCA
B14: 42481715_42481835_2119_CDS_ENSMUSG00000024491_ENSMUST00000091920|mouse|control|control (ssRNA)
RNA: GGGAGUUCUACAGUCCGACGAUCGGGGGAAGACUGGGUUACCAUCACCUGCUGCGGAUGAAGAUGCUGUGGGAGGCUAUGGUGUUGCUGUGAAAGGUGACUCAGGGUGUGUUGCUGCUGCAGGAGAAUCUGUGCUGAGGACUGCAACAGAGGAUUGAGCAUCA
B15: 46559684_46559804_1756_3pUTR_ENSG00000123200_ENST00000242848|human|control|control (ssRNA)
RNA: GGGAGUUCUACAGUCCGACGAUCGGUAUCUCUGCUAUAAUCUCUCAUCUCCCUUGAGUCCCGCAUGUCUCUGGAGUCUCUUAGUUCCCUUCGGUCCCUAGUAUCUCUGGCAUCUCUCCGAUCCCGACCAUCUCGAGGUUCUCUCAACAGAGGAUUGAGCAUCA
B16: chr14:34206250:34206251:-_ENSMUSG00000021936_ENSMUST00000111945|mus_hu|FALSE|FALSE (ssRNA)
RNA: GGGAGUUCUACAGUCCGACGAUCUGCAGUCCUGGCCAGACCGAAGUCAAGAAUCUUCAAAGUGCAAUCAGAUUUUACUACUAUAUUACUGGGCUUUAAGUCCCGAUGAAUAAUUCCAGCAGAAUGAAGGUGCUUGAUUCCACACAACAGAGGAUUGAGCAUCA
B17: chr7:91259230:91259231:-_ENSMUSG00000038459_ENSMUST00000117085|mus_mus|FALSE|FALSE (ssRNA)
RNA: GGGAGUUCUACAGUCCGACGAUCCCCCUCAACCCACAGGGGCUCCACAGCACGGGGACAGCGCUCAUACAUCGCCAAGCCAUGGGAGAAAUCGAUGACCUCAUCCUCGGUACCGUGAAUGACCAACACAGGAGAGGUGACUUUCAACAGAGGAUUGAGCAUCA
B18: chr1:163117127:163117128:-_ENSG00000143248_ENST00000313961|hu_mus|hu_hu_hu_mus_False|88_108 (ssRNA)
RNA: GGGAGUUCUACAGUCCGACGAUCUGCGGGUUAUUAUGUAACUCAACACUCACAGGAACUUUUGGAAGCCUGACCAGAUGACUACUUGAUUAGCUCCUUAUAAAAUUCAGAGCGCACAAAGCGGGGCAGAGAAUCCUUCUCCAUCAACAGAGGAUUGAGCAUCA
B19: chr7:140404665:140404666:+_ENSG00000090266_ENST00000247866|hu_hu|hu_hu_hu_mus_False|8_108 (ssRNA)
RNA: GGGAGUUCUACAGUCCGACGAUCUGCGUACAGAGUGCCAGAGAGUUUACAGUGUCAGUCCUCGUCAUCAGGAGGGAUUCCCAGUUCUUCAUCUGUCCACUGUGAAGGAUCUGGAUAUGAAAAGUGACCCAGCACCUCAUCCGACAACAGAGGAUUGAGCAUCA
B20: 131767450_131767570_510_ncRNA_ENSMUSG00000040025_ENSMUST00000102570|mouse|control|control (ssRNA)
RNA: GGGAGUUCUACAGUCCGACGAUCCCGAGCAGGGAAGAAAGGAACCGGCCUGGGGGGGACGCGUGGUGAGGGGGAGGCGGGGACGAGCGCUAGGCCGGCGGGGCAGCCCCGGCAGCCCGGCCACCCGGCAGCCACACGAGGGAACAACAGAGGAUUGAGCAUCA
B21: chr6:114281168:114281169:-_ENSG00000196591_ENST00000368632|hu_mus|motif|central (ssRNA)
RNA: GGGAGUUCUACAGUCCGACGAUCUUCCAUUUUUCGGUAUAAACCAUAAUUUAGCAGCAAGUUAUGAGUCAUCCGGAUUCGGUGAGGCUUCAUGGGAUGACCCUGGCCAUAAUAAUAAUUGCCAAUAUCACCAUCAUAGUAGUACAACAGAGGAUUGAGCAUCA
B22: chr11:93807532:93807533:+_ENSMUSG00000059474_ENSMUST00000107854|mus_mus|motif|central (ssRNA)
RNA: GGGAGUUCUACAGUCCGACGAUCGUACACGUUGAACUGUGAAAGAGAACGGGCUACUGAGCUGUACGACGACAGGCAUUAUGGCGGCGAUGGAAGCCUCCUCUGGUUAACGGUCUGUGUUAGCAGCAGGAGCGAGGGUCUUAACAACAGAGGAUUGAGCAUCA

These binders were tested against T1, UNK ZnF1-3 (assay: nsRBNS (natural sequence RNA bind-n-seq); RBNS binding buffer (assumed for nsRBNS): 25 mM Tris pH 7.5, 150 mM KCl, 3 mM MgCl2, 0.01% Triton X-100, 500 ug/ml BSA, 20 U/ml SUPERase-In, 4 C; UNK is unkempt and MSI1 is Musashi-1; names of the RNAs are library labels; protein concentration not given here; high values mean tight binding).

Binder	binding signal [enrichment R]
B1	1.05
B2	0.758
B3	1.06
B4	1.38
B5	0.827
B6	0.854
B7	1.42
B8	1.06
B9	1.73
B10	0.473
B11	0.432
B12	2.49
B13	0.962
B14	1.46
B15	0.707
B16	0.618
B17	1.38
B18	0.958
B19	1.32
B20	2.09
B21	0.739
B22	0.986
